The record followed here is publication PMC9911399, “Two distinct binding modes provide the RNA-binding protein RbFox with extraordinary sequence specificity”.

Sequences and labels used below:
T1: RBFOX1 RRM (Homo sapiens, UniProt Q9NWB1 109-208)
T1 sequence: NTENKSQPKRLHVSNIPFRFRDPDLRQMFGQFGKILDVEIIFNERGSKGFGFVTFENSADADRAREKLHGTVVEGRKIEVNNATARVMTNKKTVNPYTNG

B1: CUUGGAC (DNA:RNA)
RNA: GGGAGACCGGAAUUCAGAUUGUCCCUUGGACUUAAAUCCCGUCGUAGCCACCA
DNA 1: CAATCTGAATTCCGGTCTCCC
DNA 2: TGGTGGCTACGACGGGATT
B2: CACACUG (DNA:RNA)
RNA: B1 RNA with U26A, U27C, G28A, G29C, A30U, C31G
DNA 1: CAATCTGAATTCCGGTCTCCC
DNA 2: TGGTGGCTACGACGGGATT
B3: CAGAACC (DNA:RNA)
RNA: B1 RNA with U26A, U27G, G28A, G29A, A30C
DNA 1: CAATCTGAATTCCGGTCTCCC
DNA 2: TGGTGGCTACGACGGGATT
B4: AGGUUAA (DNA:RNA)
RNA: B1 RNA with C25A, U26G, U27G, G28U, G29U, C31A
DNA 1: CAATCTGAATTCCGGTCTCCC
DNA 2: TGGTGGCTACGACGGGATT
B5: UACAUGC (DNA:RNA)
RNA: B1 RNA with C25U, U26A, U27C, G28A, G29U, A30G
DNA 1: CAATCTGAATTCCGGTCTCCC
DNA 2: TGGTGGCTACGACGGGATT
B6: UAGGCUA (DNA:RNA)
RNA: B1 RNA with C25U, U26A, U27G, G29C, A30U, C31A
DNA 1: CAATCTGAATTCCGGTCTCCC
DNA 2: TGGTGGCTACGACGGGATT
B7: AGCUGUA (DNA:RNA)
RNA: B1 RNA with C25A, U26G, U27C, G28U, A30U, C31A
DNA 1: CAATCTGAATTCCGGTCTCCC
DNA 2: TGGTGGCTACGACGGGATT
B8: UGUAGUU (DNA:RNA)
RNA: B1 RNA with C25U, U26G, G28A, A30U, C31U
DNA 1: CAATCTGAATTCCGGTCTCCC
DNA 2: TGGTGGCTACGACGGGATT
B9: AACACAA (DNA:RNA)
RNA: B1 RNA with C25A, U26A, U27C, G28A, G29C, C31A
DNA 1: CAATCTGAATTCCGGTCTCCC
DNA 2: TGGTGGCTACGACGGGATT
B10: AUGCCUA (DNA:RNA)
RNA: B1 RNA with C25A, U27G, G28C, G29C, A30U, C31A
DNA 1: CAATCTGAATTCCGGTCTCCC
DNA 2: TGGTGGCTACGACGGGATT
B11: AUCGCAU (DNA:RNA)
RNA: B1 RNA with C25A, U27C, G29C, C31U
DNA 1: CAATCTGAATTCCGGTCTCCC
DNA 2: TGGTGGCTACGACGGGATT
B12: AUUCCUU (DNA:RNA)
RNA: B1 RNA with C25A, G28C, G29C, A30U, C31U
DNA 1: CAATCTGAATTCCGGTCTCCC
DNA 2: TGGTGGCTACGACGGGATT
B13: UUACGGC (DNA:RNA)
RNA: B1 RNA with C25U, U27A, G28C, A30G
DNA 1: CAATCTGAATTCCGGTCTCCC
DNA 2: TGGTGGCTACGACGGGATT
B14: UUUGCAC (DNA:RNA)
RNA: B1 RNA with C25U, G29C
DNA 1: CAATCTGAATTCCGGTCTCCC
DNA 2: TGGTGGCTACGACGGGATT
B15: ACGACAG (DNA:RNA)
RNA: B1 RNA with C25A, U26C, U27G, G28A, G29C, C31G
DNA 1: CAATCTGAATTCCGGTCTCCC
DNA 2: TGGTGGCTACGACGGGATT
B16: AUGACUC (DNA:RNA)
RNA: B1 RNA with C25A, U27G, G28A, G29C, A30U
DNA 1: CAATCTGAATTCCGGTCTCCC
DNA 2: TGGTGGCTACGACGGGATT
B17: UUCUUAG (DNA:RNA)
RNA: B1 RNA with C25U, U27C, G28U, G29U, C31G
DNA 1: CAATCTGAATTCCGGTCTCCC
DNA 2: TGGTGGCTACGACGGGATT
B18: AUACCAC (DNA:RNA)
RNA: B1 RNA with C25A, U27A, G28C, G29C
DNA 1: CAATCTGAATTCCGGTCTCCC
DNA 2: TGGTGGCTACGACGGGATT
B19: CGUACAA (DNA:RNA)
RNA: B1 RNA with U26G, G28A, G29C, C31A
DNA 1: CAATCTGAATTCCGGTCTCCC
DNA 2: TGGTGGCTACGACGGGATT
B20: CAGAACG (DNA:RNA)
RNA: B1 RNA with U26A, U27G, G28A, G29A, A30C, C31G
DNA 1: CAATCTGAATTCCGGTCTCCC
DNA 2: TGGTGGCTACGACGGGATT

Where a chain is given by its changes, count along the chain named. Some of the results follow.

The target in the experiment is T1, RBFOX1 RRM. Kind of experiment: EMSA; HiTS-Eq, 1 nM pool, 10 min; buffer printed only for the single-RNA assays: 10 mM Tris pH 7.5, 150 mM NaCl, 3.4 mM EDTA, 0.001% NP-40, 30 C. The conditions noted are these: tags: His6 N-terminal (pET28a); label: 5' 32P. In a few lines:
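These values rest on relative association constants, computed from read-count changes of each RNA species versus the control reaction and normalised to the cognate motif. Reads came from free RNA recovered by 8% native PAGE after purified RbFox RRM (wild type or mutant) at increasing concentrations was equilibrated for 10 min in 50 µL with 1 nM of a 5′-radiolabelled pool with 7 randomized nucleotides and DNA-annealed flanks.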
(Mobility shift assays separate free from complexed probe on a gel.)
Regarding B1, the binding signal is 0.00562 KA relative to UGCAUGU. As for B2, the binding signal was 0.00466 KA relative to UGCAUGU. Regarding B3, the binding signal was 0.00361 KA relative to UGCAUGU.

For the molecule B4, the binding signal was 0.00451 KA relative to UGCAUGU. For B5, the binding signal is 0.0112 KA relative to UGCAUGU.

With B6, the binding signal was 0.0122 KA relative to UGCAUGU. In the case of B7, the binding signal was 0.00783 KA relative to UGCAUGU. Take B8: the binding signal is 0.0111 KA relative to UGCAUGU. Under B9 stands 0.00155 KA relative to UGCAUGU; under B10, 0.00728 KA relative to UGCAUGU.

Take B11: the binding signal is 0.00791 KA relative to UGCAUGU. With B12, the binding signal is 0.00315 KA relative to UGCAUGU. Under B13 stands 0.00771 KA relative to UGCAUGU.

Turning to B14, the binding signal is 0.0223 KA relative to UGCAUGU. Under B15 stands 0.00464 KA relative to UGCAUGU. As for B16, the figure is 0.0107 KA relative to UGCAUGU. As for B17, the figure is 0.00996 KA relative to UGCAUGU; as for B18, 0.00168 KA relative to UGCAUGU; as for B19, 0.00407 KA relative to UGCAUGU. Consider B20, for which the binding signal is 0.00737 KA relative to UGCAUGU.
